# Source: PMC4336329 (PLoS ONE, 2015)
# The whole screen tested about 310,000 compounds, of which about 14,000 (4.5%) showed an effect of 50% or more. The effect is printed as a negative number. The list shows a part of the results.
# Target: human ether-à-go-go-related gene (hERG) potassium channel (human, UniProt Q12809)
# Experiment: primary screen, population patch clamp on CHO cells stably expressing hERG
# 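Also: peak tail current of the secondary pulse compared with the same well before compound.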
# Sequence of human ether-à-go-go-related gene (hERG) potassium channel (Q12809 whole entry, looked up): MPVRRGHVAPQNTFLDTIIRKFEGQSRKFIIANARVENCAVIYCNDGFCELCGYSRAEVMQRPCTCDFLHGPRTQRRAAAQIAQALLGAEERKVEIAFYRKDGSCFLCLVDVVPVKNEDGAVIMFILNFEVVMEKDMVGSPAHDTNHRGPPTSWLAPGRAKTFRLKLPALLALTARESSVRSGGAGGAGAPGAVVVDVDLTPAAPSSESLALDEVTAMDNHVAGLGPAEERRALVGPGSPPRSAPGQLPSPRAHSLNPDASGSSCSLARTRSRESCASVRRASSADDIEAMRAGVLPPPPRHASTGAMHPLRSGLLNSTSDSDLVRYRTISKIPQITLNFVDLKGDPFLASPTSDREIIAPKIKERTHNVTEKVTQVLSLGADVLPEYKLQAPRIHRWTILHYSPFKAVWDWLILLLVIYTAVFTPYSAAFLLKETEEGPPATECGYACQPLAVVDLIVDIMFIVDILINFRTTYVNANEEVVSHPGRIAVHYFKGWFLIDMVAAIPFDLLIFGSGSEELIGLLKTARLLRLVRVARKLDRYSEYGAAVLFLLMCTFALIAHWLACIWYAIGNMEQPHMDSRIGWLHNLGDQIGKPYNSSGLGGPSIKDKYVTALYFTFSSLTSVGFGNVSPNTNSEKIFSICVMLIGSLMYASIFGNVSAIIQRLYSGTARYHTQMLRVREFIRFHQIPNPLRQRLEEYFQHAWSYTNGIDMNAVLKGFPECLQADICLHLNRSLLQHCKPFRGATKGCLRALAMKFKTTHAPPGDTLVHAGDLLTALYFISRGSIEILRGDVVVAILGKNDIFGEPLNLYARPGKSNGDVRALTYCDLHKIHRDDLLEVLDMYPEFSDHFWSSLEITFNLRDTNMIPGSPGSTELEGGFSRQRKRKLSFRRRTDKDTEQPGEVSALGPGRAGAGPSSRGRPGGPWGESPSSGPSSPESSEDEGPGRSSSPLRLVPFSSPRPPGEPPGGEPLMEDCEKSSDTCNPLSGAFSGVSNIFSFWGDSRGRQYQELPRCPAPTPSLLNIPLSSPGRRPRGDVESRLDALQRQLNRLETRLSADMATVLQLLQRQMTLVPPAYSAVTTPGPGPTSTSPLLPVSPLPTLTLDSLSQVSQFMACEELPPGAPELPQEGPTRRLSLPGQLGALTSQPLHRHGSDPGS
row,SMILES,"hERG current change (%, negative = inhibition) at 10uM"
1,CCOc1ccc(S(=O)(=O)N(CC(=O)Nc2cccnc2)c2ccc(F)cc2)cc1,2.96%
2,Cc1ccc(NC(=O)CCCCCC2NC(=O)NC2C)cc1 (centres unmarked),0.514%
3,Cc1nc(N)[nH]c(=O)c1CCC(=O)OCC(C)C,8.83%
4,COCCCN1C(=O)c2[nH]nc(-c3ccccc3O)c2C1c1cccc(Cl)c1 (centres unmarked),20.9%
5,Cc1ccc(NC(=O)Cc2ccc(-c3ccccc3)cc2)nc1,12.9%
6,COC(=O)[C@H](Cc1ccccc1)NC(=O)Nc1ccc(OC)cc1,5.76%
7,COC(=O)Nc1ccc(S(=O)(=O)N(CCO)CCO)cc1,-3%
8,CCOC(=O)c1c(NC(=O)Cc2cccs2)sc(C(=O)NC2CCCC2)c1C,-3.25%
9,CC12CN3CC(C)(CN(C1)C3c1ccc(F)cc1)C2 (centres unmarked),-36.1%
10,O=c1c2c(-c3ccccc3)csc2ncn1/N=C/c1ccc(O)c([N+](=O)[O-])c1,-3.75%
11,C/C(N)=C(/C#N)C(=O)CN1CCCCC1,8.56%
12,CC(Sc1nnc(Cc2ccc3c(c2)OCO3)o1)C(N)=O (centres unmarked),7.62%
13,Cc1ccc(C(=O)CSc2nc3cccnc3n2C)cc1,5.94%
14,C/C(=N\NC(N)=S)c1ccc(Cl)s1,12.4%
15,C[C@@H]1CCC[C@@]2(O[C@H](CCO)C[C@H](O)[C@H]2O)O1,6.68%
16,CCOc1nc(-c2ccccc2)c2cc(Br)ccc2n1,20.5%
17,COc1ccc(/C=N\NC(=O)c2cc(OCC(F)(F)F)ccc2OCC(F)(F)F)cc1,-0.329%
18,CC(C)(C)N=C1NN=C(c2ccc(Cl)cc2)CS1,-3.18%
19,Cc1ccc2oc(=O)n(CC(=O)OC(C)C)c2c1,-7.59%
20,CCOC(=O)N/N=C\C=C\c1ccc2c(c1)OCO2,-6.51%
21,COc1cccc(-c2nc(CS(=O)(=O)CC(=O)Nc3ccc(C(C)=O)cc3)c(C)o2)c1,10.5%
22,CC(NC(=O)c1sc2cc([N+](=O)[O-])ccc2c1Cl)C(C)(C)C (centres unmarked),-0.962%
23,COc1cccc(/C=C/C(=O)NCc2ccc3c(c2)OCO3)c1,-32%

row,SMILES,"hERG current change (%, negative = inhibition) at 10uM"
1,NC(=O)CN1C(=O)NC2(CCOc3ccccc32)C1=O (centres unmarked),22.7%
2,COCCN(C(=O)COC(=O)C(c1ccccc1)c1ccccc1)c1c(N)n(Cc2ccccc2)c(=O)[nH]c1=O,-10.6%
3,CCOCCn1c(=O)c2c(nc3n2CC(C)CN3Cc2ccccc2)n(C)c1=O (centres unmarked),-49.5%
4,O=C(Nc1ccccn1)c1ccc(Br)s1,10.5%
5,Nc1nc(CSc2nc3ccccc3s2)nc(N2CCCCC2)n1,14.8%
6,Cc1[nH]c(C)c(S(=O)(=O)NCCc2ccc(S(N)(=O)=O)cc2)c1C(=O)N1CCCC1,20.5%
7,CC(=O)c1ccc(NC(=S)Nc2cccc3cnccc23)cc1,4.95%
8,CC(=O)N1c2ccc(S(=O)(=O)N3CCC(C(=O)NC4CCCCC4)CC3)cc2CC1C (centres unmarked),15.4%
9,OC(COCc1ccc(Cl)cc1)CN1CCN(CC(O)COCc2ccc(Cl)cc2)CC1 (centres unmarked),-75.2%
10,CC1CN(CCc2ccccc2)c2nc3c(c(=O)n(CC(N)=O)c(=O)n3C)n2C1 (centres unmarked),2.53%
11,CC(C)(C)C(=O)/C(C#N)=C/c1cccs1,7.48%
12,Cc1ccccc1-c1nc(CS(=O)(=O)CC(=O)N2CCc3ccccc3C2)c(C)o1,-23.3%
13,CC(=O)NCc1ccc(S(=O)(=O)N/N=C/c2ccc(Br)cc2)cc1,27.3%
14,CCN(CC(=O)Nc1c(F)cccc1F)C(=O)CSCc1c(C)noc1C,13.2%
15,COc1cccc(NP(=O)(Oc2ccccc2)Oc2ccccc2)c1,-11.9%
16,O=C(CC(=O)Nc1ccccc1C(F)(F)F)Nc1ccccc1C(F)(F)F,9.61%
17,CC(C)CC[n+]1ccccc1/C=C/c1ccc(N(C)C)cc1.[I-],-71.3%
18,Cc1csc(NC(=O)CSc2nc3[nH]ncc3c(=O)[nH]2)n1,38.1%
19,CS(=O)(=O)N(CC(=O)N1CCCC1)c1cccc(Cl)c1,-1.53%
20,CC(/C=C/c1ccc(N(C)C)cc1)=N\N=C(/N)SC1CC(=O)N(c2ccc(C(=O)O)cc2)C1=O (centres unmarked),6.9%
21,NC(=O)c1cc(N)ccc1N1CCCC1,-2.18%
22,CC(=O)O.Cc1ccc2nc(N3C(=O)C(O)=C(C(=O)c4cc5ccccc5o4)C3c3cccs3)sc2c1 (centres unmarked),6.24%
23,C#CCOCCOCCOCCNc1nc(N2CCN(C(=O)[C@H](CCCC[NH3+])n3cc(CCCC)nn3)CC2)nc(N2CCN(C(=O)[C@H](CCCC[NH3+])n3cc(CCC(=O)O)nn3)CC2)n1.[Cl-],17.4%

row,SMILES,"hERG current change (%, negative = inhibition) at 10uM"
1,Cc1ccc(S(=O)(=O)N2CCCCC2)cc1C(=O)NC1CC(C)(C)NC(C)(C)C1,2.27%
2,O=C(NCCc1ccccc1)c1ccccc1[N+](=O)[O-],6.08%
3,Cc1ccc(N(C)S(=O)(=O)c2cccc(C(=O)NC3CC(C)(C)NC(C)(C)C3)c2)cc1,-30.1%
4,Cn1c(C(=O)OC(C(=O)NC2CCCC2)c2cccnc2)cc2sccc21 (centres unmarked),1.52%
5,COCc1c(C(=O)N2CCN(Cc3ccc4c(c3)OCO4)CC2)oc2ccccc12,-40.8%
6,CCOC(=O)N1CCN(c2c(NCc3ccccn3)c(=O)c2=O)CC1,11.1%
7,CCCn1c(C)cc(C=O)c1C,21.9%
8,CC(C)Sc1nc(N2CCOCC2)c2c(c1C#N)CC(C)(C)SC2,5.69%
9,O=C(CSc1nnc(CNC(=O)c2cccs2)o1)c1ccccc1,10.6%
10,O=C1/C(=C/c2ccco2)Oc2c1ccc(O)c2CN1CCCCC1,-10.5%
11,Cn1c(N)c(C(=O)CSc2nc(C3CC3)n(-c3ccccc3)n2)c(=O)n(C)c1=O,-10.3%
12,CCOc1ccccc1NC(=O)Nc1ccncc1,14.9%
13,O=C(CCN1C(=O)S/C(=C\C=C\c2ccccc2)C1=O)Nc1ccc(O)cc1,-8.46%
14,CCOCCCn1c(=S)[nH]c2cc(C(=O)N3CCC(C(N)=O)(N4CCCCC4)CC3)ccc2c1=O,-21.8%
15,Br.CC1(C(=O)CSc2ncn[nH]2)CCC(=O)O1 (centres unmarked),2.21%
16,Cc1ccc(Cn2cc(C=O)c(-c3ccc(F)cc3)n2)cc1,4.47%
17,O=C(c1cccc(C(F)(F)F)c1)C1CCCN(Cc2ncc[nH]2)C1 (centres unmarked),0.0209%
18,O=C(Nc1ccccc1C(=O)NCC1CCCO1)c1ccc(Cl)cc1 (centres unmarked),-34.8%
19,CCN(CC)c1ccc(C(=O)Nc2cccc(F)c2)cc1,-18.2%
20,Br.Cc1ccnc(Nc2nc(-c3ccc(Cl)cc3)cs2)c1,2.65%
21,CCCCOc1ccccc1C(=O)NCCCC(=O)O,22.2%
22,CCc1ccc(N(CC(=O)NCc2ccc3c(c2)OCO3)C(=O)c2csnn2)cc1,-4%
23,CCOc1ccccc1NC(=O)c1ccc(S(=O)(=O)N2CCOCC2)cc1,-2.46%

row,SMILES,"hERG current change (%, negative = inhibition) at 10uM"
1,Cc1ccc(Nc2ccccc2)nn1,18.6%
2,CCOC(=O)c1ccc(NC(=O)Nc2ccc(Cl)cn2)cc1,-7.73%
3,CCOc1ccc2c(c1)C(c1ccc(C)cc1)=NNC(c1ccc(OC)cc1)=N2,-21%
4,O=C(/C=C/c1ccccc1)N1CCC(N2CCC(C(=O)N3CCOCC3)CC2)CC1,-23.4%
5,O=C(NCc1cc([N+](=O)[O-])ccc1O)c1cccnc1Sc1ccccc1Cl,27.4%
6,Cc1cc(C)nc(SCc2nnc(SCC(=O)N3CCCc4ccccc43)n2C)n1,-10.3%
7,CSc1cccc(-n2c(C)cc(C(N)=O)c2C)c1,10.6%
8,COc1ccc(C(=O)OCC(=O)c2ccc(CNC(C)=O)s2)cc1,-4.56%
9,O=C(Nc1ccc(F)cc1)c1nc2c(nnn2Cc2cccc3ccccc23)c(=O)[nH]1,22.1%
10,CCN(CC)CCCNC(=O)/C(=C\c1cccn1C)NC(=O)c1cccs1,11.4%
11,COc1ccc(-n2ncc3c(NCc4ccccn4)ncnc32)cc1,-3.05%
12,CCOc1cc(C2C3=C(CCCC3=O)NC3=C2C(=O)CCC3)ccc1OCCO,11.8%
13,Oc1c(Br)cc(Br)cc1/C=N/N1CCN(Cc2ccccc2)CC1,16%
14,Cc1cc(-c2nnc(SCC(=O)Nc3c(C)cccc3C)n2N)n[nH]1,20.8%
15,FC(F)(F)COc1ccc(-c2nnc(SCc3ccccc3)o2)cn1,8.82%
16,Cc1ccccc1NC(=S)Nc1ccccn1,5.96%
17,CCOC(=O)C1=C(C)Nc2nc3ccccc3n2C1c1ccncc1 (centres unmarked),-2.44%
18,CCCc1nc2n[nH]c(N)c2c2c1COC(C)(C)C2,-14.8%
19,COC(=O)C1=C(C)NC(C)=C(C(=O)OC)C1c1cc2cc(C)ccc2[nH]c1=O,3.11%
20,C=CCOc1c(Br)cc(CNc2ccc(NC(=O)C(C)C)cc2)cc1OCC,21.5%
